Assay results published in PubChem BioAssay AID1345083 (National Center for Advancing Translational Sciences (NCATS), 2018).
Several values for one entry are separate records, joined by “and”; a condition that tells them apart may be missing. Equal entries are not always repeated. Screen size: about 94,000 compounds; about 6,200 (6.6%) were called active. The inconclusive results got no clear call from the source; some entries with a clear call stand among them for comparison. Calls follow the shape of the dose curve; as a rule, active = well fitted inhibition curve with a large enough effect; inconclusive = small, poorly fitted or top-dose-only effect; inactive = flat fitted curve, though single readings scatter. A potency beside an inconclusive call is a rough fit, not a confirmed value.
Potency is read from the fitted curve at half-maximal effect; tags tell the direction and shape of the fitted curve.

Assay: Cytotoxic Profiling in HEK 293 Cell Line of Diverse Libraries Using Quantitative High-Throughput Screening; also: nearly all actives have a fitted effect of over 60% in size
Conditions: HEK 293 viability, ATP luminescence (CellTiter-Glo), 48-72 h; series mostly up to 115 µM
Summary of the method: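 Read-out: CellTiter-Glo ATP luminescence. Cells: HEK 293, 250 cells/well. Exposure: 48 or 72 hr, 37 degree Celsius.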
With `CCCN1C(=O)CCc2cc(NC(=O)c3cccc(N(C)C)c3)ccc21` the Potency was inconclusive: 10 µM [inhibitor, full curve, poor fit]. In the case of `Cc1cccc(OC[C@H]2C[C@@H](NCc3ccc(C)o3)[C@H](O)[C@@H]2O)n1`, the Potency is reported as “inactive”. In the case of `COc1ccc(-c2nc3c(C)cccc3cc2CN2CCC[C@H]2CO)cc1OC`, the Potency is reported as inconclusive: 79.4 µM [inhibitor, single point]. For `CN1CC(=O)N(c2ccccc2F)Cc2c(NCCc3ccc(Cl)cc3)ncnc21`, the Potency was active: 44.7 µM. In the case of `Cc1ccc(OCc2nc(C3CN(C(=O)CCCc4ccccc4)C3)no2)cc1`, the Potency is reported as inconclusive: 79.4 µM [inhibitor, partial curve, poor fit]. With `COc1cc(CN2CCC(C)(NC(C)=O)CC2)cc(Nc2ccccc2)c1` the Potency was inconclusive: 100 µM [inhibitor, partial curve]. With `CC(C)CCN1CCOc2cc(C(=O)N(C)c3cccnc3)ccc2C1` the Potency was active: 112 µM. For `O=C(NC1CCN(c2cc(-c3cccs3)[nH]n2)C1)c1cccc2[nH]ccc12` (stereo not given), the Potency was inconclusive: 50.1 µM [inhibitor, partial curve, poor fit]. For `O=C1N[C@@H]2CCN(C(=O)c3ccc(-c4ccccc4)cc3)[C@@H]2C(=O)N1Cc1ccccc1`, the Potency was inconclusive: 79.4 µM [inhibitor, partial curve, poor fit]. In the case of `CC(C)CNC(=O)C1(CCO)CC12CCOCC2` (stereo not given), the Potency is reported as “inactive”. For `COCCn1c(CO)nnc1C1CC(NC(=O)c2ccoc2C)C1` (stereo not given), the Potency was “inactive”. With `CCCn1ncc(-c2nc(-c3ccncc3)no2)c1C` the Potency was active: 35.5 µM. With `COc1ccccc1CCc1nc(C2CC(=O)N(c3ccc(F)c(Cl)c3)C2)no1` (stereo not given) the Potency was inconclusive: 50.1 µM [inhibitor, partial curve, poor fit]. In the case of `CN(Cc1cn(-c2ccccc2)nn1)Cc1noc(C2CCC2)n1`, the Potency is reported as inconclusive: 100 µM [inhibitor, single point]. With `O=C(NCc1ccccc1)N1CCC(Oc2ncccc2C(=O)N2CCCCC2)C1` (stereo not given) the Potency was “inactive”. In the case of `CN1C[C@@H](NC(=O)c2ccc(-c3ccccc3)cc2)C[C@H]1c1nc(-c2ccc(Cl)cc2)no1`, the Potency is reported as inconclusive: 44.7 µM [inhibitor, full curve, poor fit]. In the case of `COc1cccc(-c2nc(-c3c(C)noc3C)cc3c2cc(C)n3CCN(C)C)c1`, the Potency is reported as active: 44.7 µM. In the case of `Cc1ccc(C(=O)N2CC(C(=O)NC3CCCCC3)C3(CCOCC3)C2)cc1F` (stereo not given), the Potency is reported as “inactive”. In the case of `COc1cccc([S+](=O)([O-])N2CCCC3(C2)C(=NC2CCCC2)NC(=O)N3c2cc(F)cc(F)c2)c1` (stereo not given), the Potency is reported as inconclusive: 100 µM [inhibitor, partial curve, poor fit] and inconclusive: 56.2 µM [inhibitor, partial curve, poor fit]. For `Cc1ccccc1C(=O)N1CCCC1C(=O)N1CCC(N2CCOCC2=O)CC1` (stereo not given), the Potency was “inactive”. In the case of `Cc1csc(NC(=O)c2ccc3c(c2)OCC(=O)N(Cc2cnn(C)c2)C3)n1`, the Potency is reported as inconclusive: 35.5 µM [inhibitor, partial curve, poor fit]. For `COCCN1C(=O)[C@@H]2C[C@@H](CN2Cc2ccc3ccccc3n2)Oc2ccccc21`, the Potency was inconclusive: 50.1 µM [inhibitor, partial curve, poor fit]. With `CC(C)=CC(=O)N1CC[C@H](NC(=O)NC2CCCCC2)[C@H]1C(=O)N[C@H](Cc1c[nH]c2ccccc12)C(N)=O` the Potency was “inactive”. In the case of `Cc1nn2c(c1-c1ccccc1N1CCCC1)N(C(=O)c1ccc(F)cc1)CCC2`, the Potency is reported as active: 70.8 µM. For `Fc1ccc(CN2CCC3(CC(c4cccc(C(F)(F)F)c4)=NO3)C2)cc1` (stereo not given), the Potency was inconclusive: 79.4 µM [inhibitor, single point]. In the case of `Cn1ncc2c(C(=O)NCC3CC3)cc(-c3ccc(Cl)nc3)nc21`, the Potency is reported as inconclusive: 31.6 µM [inhibitor, full curve, poor fit]. For `COc1cc(C(=O)NCCn2cccc2-c2nc(-c3ccccc3)no2)cc(OC)c1OC`, the Potency was inconclusive: 50.1 µM [inhibitor, partial curve, poor fit]. For `O=C(Nc1ccc(Cl)cc1Cl)c1cn2c(n1)CN(C(=O)c1ccccc1)CC2`, the Potency was inconclusive: 89.1 µM [inhibitor, single point]. For `CCN1c2cc(C(=O)NCc3ccccc3)ccc2C(=O)N2CCCCC21` (stereo not given), the Potency was inconclusive: 89.1 µM [inhibitor, single point]. In the case of `Cn1cc(CN2C[C@@H]3OCC(=O)N[C@@H]3C2)c2ccccc21`, the Potency is reported as inconclusive: 126 µM [inhibitor, partial curve, poor fit]. For `COc1ccc(-c2ccc(C(=O)NCc3ccccc3)c(Cl)c2)nn1`, the Potency was “inactive”. With `Cc1cc(=O)n(CC(=O)Nc2ccc(F)cc2)c(N2CCN(c3ccccc3)CC2)n1` the Potency was inconclusive: 50.1 µM [inhibitor, partial curve, poor fit]. In the case of `Cc1ccc([S+](=O)([O-])N2CCCN(CCn3nc4n(c3=O)CCCC4)CC2)cc1`, the Potency is reported as “inactive”. With `CCN1c2cc(C(=O)Nc3ccccc3)ccc2C(=O)N2CCCC21` (stereo not given) the Potency was inconclusive: 70.8 µM [inhibitor, single point]. With `FC(F)(F)c1ccc(-c2cnc([C@@H]3COCCN3Cc3ccccn3)[nH]2)cc1` the Potency was active: 56.2 µM. With `O=C(COc1cccnc1)N[C@@H]1[C@@H]2CCO[C@@H]2[C@@H]1C1CCCC1` the Potency was “inactive”. In the case of `COc1ccc(CC(=O)NC2CCCN(Cc3ccc(-c4cncnc4)cc3)C2)cc1` (stereo not given), the Potency is reported as inconclusive: 56.2 µM [inhibitor, partial curve, poor fit]. In the case of `CCOc1ccc(C(=O)N2CCn3nc(Cc4ccccc4)cc3C2)cc1`, the Potency is reported as inconclusive: 79.4 µM [inhibitor, partial curve, poor fit]. With `FC(F)(F)c1cccc(C2=NOC3(CCCN(CC4CCCCC4)C3)C2)c1` (stereo not given) the Potency was inconclusive: 100 µM [inhibitor, single point]. With `COCC(=O)N1CCCN(c2ccc3nnc(C)n3n2)CC1` the Potency was “inactive”. For `CN(C)c1cccc(Oc2nnnn2[C@H]2CO[C@H]3[C@@H]2OC[C@@H]3NC(=S)Nc2cccc(C#N)c2)c1`, the Potency was active: 44.7 µM. With `OC[C@@H]1CN(Cc2ccccc2F)C[C@H]1c1nc(-c2ccncc2)no1` the Potency was inconclusive: 39.8 µM [inhibitor, partial curve, poor fit]. With `O=C(COc1ccccc1)N1CCCCCC1c1nnc(-c2ccccc2)o1` (stereo not given) the Potency was “inactive”. With `CN1CCC(NC[C@H]2Cn3c(-c4ccc5c(c4)OCCO5)cnc3CO2)CC1` the Potency was inconclusive: 112 µM [inhibitor, partial curve, poor fit]. With `COCc1nc(C2CCN(C(=O)CCc3c[nH]c4ccccc34)C2)no1` (stereo not given) the Potency was “inactive”. With `COCC(=O)N1CCC2(CC1)CCN(Cc1cccs1)c1ccccc1O2` the Potency was inconclusive: 50.1 µM [inhibitor, partial curve, poor fit]. In the case of `COc1ccc(OCC(=O)NC2CCN(c3cc(-c4ccccc4)[nH]n3)CC2)cc1`, the Potency is reported as inconclusive: 79.4 µM [inhibitor, single point]. For `N#CCCN1C[C@H]2COc3ccccc3[C@H]2N(C(=O)c2ccc(F)cc2)CCC1=O`, the Potency was “inactive”. In the case of `Cc1ccc(-n2c(C3CCN(C(=O)c4cccc(C)c4)CC3)n[nH]c2=O)cc1`, the Potency is reported as “inactive”. For `c1coc(-c2nc3nccc(-c4ccc5c(c4)OCCCO5)n3n2)c1`, the Potency was inconclusive: 50.1 µM [inhibitor, partial curve, poor fit]. In the case of `CN(C)CC1(O)CCC2(CCN(C(=O)CCc3nc4ccccc4[nH]3)CC2)CC1`, the Potency is reported as inconclusive: 100 µM [inhibitor, single point]. In the case of `CCOc1nccnc1NC1CCN(C(=O)c2ccc(C)s2)CC1`, the Potency is reported as inconclusive: 79.4 µM [inhibitor, single point]. With `O=C(c1cc2ccccc2[nH]1)N1CCC(c2noc(C3CC3)n2)C1` (stereo not given) the Potency was inconclusive: 70.8 µM [inhibitor, partial curve, poor fit]. For `CC(=O)N1CCC(N2CCOC[C@H]2c2ncc(-c3ccc(Cl)s3)[nH]2)CC1`, the Potency was “inactive”. For `O=C(NC1CCN(c2cc(-c3ccc(F)cc3)[nH]n2)C1)c1ccccc1Br` (stereo not given), the Potency was inconclusive: 50.1 µM [inhibitor, partial curve, poor fit]. For `COc1ccccc1C(=O)NC1CCN(Cc2ccc(-c3cc(F)ccc3OC)cc2)C1` (stereo not given), the Potency was inconclusive: 44.7 µM [inhibitor, partial curve, poor fit]. In the case of `O=C(NCc1ccc(C(F)(F)F)cc1)C1CCCN1Cc1ccc(-c2cncnc2)cc1` (stereo not given), the Potency is reported as inconclusive: 56.2 µM [inhibitor, partial curve, poor fit]. With `CN1CCN(c2nc3c(c(=O)[nH]2)CCN(Cc2ccc(C#N)cc2)CC3)CC1` the Potency was “inactive”. In the case of `COc1ccc(OCC2CN(Cc3cccs3)C(=O)c3cccnc3O2)cc1` (stereo not given), the Potency is reported as inconclusive: 79.4 µM [inhibitor, partial curve, poor fit]. In the case of `Cc1noc2c(-c3cnn(C)c3)cc(-c3cccs3)nc12`, the Potency is reported as inconclusive: 70.8 µM [inhibitor, partial curve]. For `COc1ccccc1C(=O)N1CCCC(n2cc(-c3noc(C)n3)nn2)C1` (stereo not given), the Potency was “inactive”. In the case of `N#Cc1cccc(C(=O)NC2CCCN(c3cc(-c4ccc(F)cc4)[nH]n3)C2)c1` (stereo not given), the Potency is reported as inconclusive: 79.4 µM [inhibitor, partial curve, poor fit]. In the case of `CCc1noc([C@@H]2CC(F)(F)CN2C(=O)c2ccc3nc[nH]c3c2)n1`, the Potency is reported as “inactive”. In the case of `CCn1ccc(C(=O)N2CCC(N3CC(OCC4CC4)C34CCOCC4)CC2)n1` (stereo not given), the Potency is reported as “inactive”. With `COc1ccc(CC(=O)N2Cc3ccccc3CC3(CCN(C)C3)C2)cc1` (stereo not given) the Potency was “inactive”.
